Assay results as given in the supplement of paper PMC11417369.
± gives the standard deviation of the averaged measurements. Some of the results follow.

Each sequence was assayed on PfAP2-LT AP2 domain (GST-tagged) (assay: gcPBM binding intensity (ln(normalized median fluorescence intensity)); higher = stronger DNA binding).
In short: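 Binding intensity is defined as the maximum Masliner-normalised natural-log median intensity across replicate spots for either probe orientation. It was measured on an Agilent 4 × 180k array of primer-extended double-stranded 36-bp intergenic genomic probes and negative controls, to which GST-tagged P. falciparum DNA-binding domains made in E. coli were applied for 1 h in 1× PBS with 1% milk, 0.2 mg/ml BSA, 0.5% salmon testes DNA and 0.03% Triton X-100. Detection was by Alexa488 anti-GST antibody and scanning at 488 nm.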

Row | Sequence | gcPBM binding intensity (ln)
1 | AAAAAAAAAAAAATACGTACACAAAAAATTGCAAAG [XGTACX_site5663] | 8.9 ± 0.35
2 | CATACATAAATATAAACATGCATATATTTTTTTTAT [TGCATGCA_site616] | 8.76 ± 0.47
3 | TGATATCTTAAGAAATGTACAAAGATATAACCATTT [XGTACX_site1913] | 8.7 ± 0.41
4 | ATTTTAATAAAATATGTACACACATACACCCATATA [CACACA_site8326] | 9.17 ± 0.34
5 | TAAATAAAAAAAAATACACACATCTATATAAAATAT [CACACA_site3774] | 8.98 ± 0.42
6 | GTATCAAAAGAATACACACACACATACCTATAAATA [CACACA_site7737] | 9.86 ± 0.28
7 | AAAGGAAAAAAAGTAGCACACAAATATTTATAATAT [CACACA_site8772] | 9.1 ± 0.58
8 | AAAAAAAAAACACACACATGCACATCATATTATATA [TGCATGCA_site133] | 9.35 ± 0.3
9 | GATATGTAAATAATATGTACATATTTATATTGTATT [XGTACX_site4052] | 8.76 ± 0.44
10 | TTTAAAGGTGATAAAACACACGATTTAGAAATGTAT [CACACA_site3161] | 8.82 ± 0.48
11 | ATATATTATCAACTTACACACAGAAAAATATAATAA [CACACA_site293] | 9.04 ± 0.41
12 | AAAAAGAATGTGAACACACACATTGAATATAATTTA [CACACA_site1262] | 9.16 ± 0.52
13 | TTAATACAAATAAAAAGTACAAGTATCGAACTACTA [XGTACX_site6308] | 8.72 ± 0.44
14 | TTTTTAGTAACATATAGTACATATATATATATATGT [XGTACX_site4780] | 8.79 ± 0.39
15 | TTATTTTTTCTTCAAATGTGAATTATTCATTTATTT [TGCATGCA_negctrl_site545] | 8.63 ± 0.49
16 | ATAATATGAAACTCGTACGAGGTTGTCCCAAATATA [CACACA_negctrl_site1350] | 9.11 ± 0.4
17 | TGGAAAGTTATTAACACACACATATAAATATTTATA [CACACA_site6173] | 9.03 ± 0.41
18 | AGATCATAATATTATACACACATTATATATATGTAA [CACACA_site8419] | 8.99 ± 0.35
19 | TATATATAATATTATACACACATATCTGCATAATAT [CACACA_site4202] | 9.11 ± 0.4
20 | AAAAACCATTCGCACACACACATAATCTATAATATA [CACACA_site6782] | 9.73 ± 0.3
21 | AAGTACCATATAGGCACACATATATATATATATATA [CACACA_site3282] | 10 ± 0.28
22 | AAAAACGAAAAAAATACACACCTGAAAAGATATGTA [CACACA_site4644] | 9.07 ± 0.48
23 | GTATATATGTATATGTGTACATATATTTTATAATAT [XGTACX_site5703] | 8.79 ± 0.36

Row | Sequence | gcPBM binding intensity (ln)
24 | TTTTCTTGTAGTATAACAAAATATAGTAATATATAT [GTGCAC_negctrl_site609] | 8.33 ± 0.42
25 | GTTGTTATATAAAGGAGTACATAATAACACAAATAT [XGTACX_site615] | 8.96 ± 0.33
26 | CCATTTGGTATTATATGTACATATAATTTTTTTTTT [XGTACX_site157] | 8.74 ± 0.49
27 | AATCCTTCATATGTAGTGCATATTAACAAAATAAAA [GTGCAC_site9500] | 8.58 ± 0.44
28 | ATGAAATATTTATTTGTGCACTTAATTTGTTGGAAA | 8.61 ± 0.48
29 | GATTTATTTCATATCACACATTTTGGCTATTTTGTG [CACACA_site5793] | 9.07 ± 0.44
30 | AAAAAAAAAAAAAAAACACACATTTATAGTATATAT [CACACA_site1194] | 8.87 ± 0.3
31 | TCCAATTCTTTATTTTGTACACATTATGTGCATATG [XGTACX_site6290] | 8.99 ± 0.57
32 | AGTATTATATATATATGTACATAATATACATATATA [XGTACX_site8514] | 8.73 ± 0.36
33 | TTATAAGATTTATGTACACACATATACACAGCTCTA [CACACA_site6481] | 9.06 ± 0.45
34 | TCCTAATGCTACCACACACACAAAAACAAATAATAA [CACACA_site2610] | 9.35 ± 0.41
35 | TATTAAAATATTTATACACACATAATTTTGATAAAT [CACACA_site4486] | 8.6 ± 0.33
36 | TGTCATTCCTCTTATTGTACAAAAATATTATAATAT [XGTACX_site1134] | 8.67 ± 0.42
37 | TGTTATTAGAAAAATGCACACCAAAAAAAAAAAAAA [CACACA_site8802] | 8.7 ± 0.51
38 | ATATACATAATATATAATATAAATATATATATGGAA [CACACA_negctrl_site906] | 8.75 ± 0.42
39 | GCTATAAATACAGACGCACACATATACATACAGATA [CACACA_site5778] | 9.33 ± 0.42
40 | TAATTAATTTACATTTTAATTTTATACAAAATTTAT [CACACA_negctrl_site830] | 8.3 ± 0.53
41 | ACATATTTATATTCTACACACTTATACTATAATACA [CACACA_site7204] | 8.96 ± 0.4
42 | ATGGAACTTAAAAATTGTACACATAAAATGGAGAAG [XGTACX_site1823] | 8.88 ± 0.47
43 | GTTATACGCATCAACACACACATACAACGTGGTGTA [CACACA_site1188] | 9.15 ± 0.3
44 | TGGTAATATCGATTCACACATATCAAAATAAAAAAA [CACACA_site4196] | 8.71 ± 0.45
45 | TAGGAGAAAAAAAAAAGTACCCACAACTATTATACT [XGTACX_site8195] | 8.93 ± 0.4
46 | AACATATTAATGTACACACACCCACGCACAAACAAA [CACACA_site7320] | 9.765 ± 0.092

Row | Sequence | gcPBM binding intensity (ln)
47 | TATATATATTAACTTGTGCGCAAAAAGATATAATTT [GTGCAC_site9672] | 8.91 ± 0.31
48 | AATATTTTGATGTGTACACATTAATACAGTTTTACA [CACACA_site5711] | 8.9 ± 0.35
49 | AAGAAATAAAAAAAACGTACATATATACATACATAC [XGTACX_site3980] | 8.91 ± 0.42
50 | ATATGTATGTATGTCTCAAAATTTCATATTATATTA [CACACA_negctrl_site784] | 8.62 ± 0.43
51 | TAGGATATTGAATAATGTACTTTATATATAATATAA [XGTACX_site7828] | 8.38 ± 0.45
52 | AATATATATATTAAATGTACATTACATAATTATATA [XGTACX_site3450] | 8.61 ± 0.48
53 | TTTTTTTTTTTAGACACATGCATTTTTATAATTTTC [TGCATGCA_site843] | 8.7 ± 0.53
54 | TGCAACAAAATAAACACACACACACTAGCACAAAAA [CACACA_site5805] | 9.99 ± 0.14
55 | TAAATGAAAATATGTACACACTTGAAAACTTTTATG [CACACA_site7388] | 8.87 ± 0.43
56 | TTGAATTATAAGAATAAACACACAAGCTTAAAAAAA [CACACA_site8318] | 8.71 ± 0.54
57 | GAATTATAAATTATAGTGCATAAAATTATGGCATAA [GTGCAC_site9938] | 8.69 ± 0.47
58 | TCAAAACATTATTCCATACACACCATACTTTTTAAT [CACACA_site2770] | 8.89 ± 0.43
59 | CCCACAGACGGACACACACACATATATATATATATA [CACACA_site4351] | 10.4 ± 0.22
60 | TATTTAAATTTGTATAATGGACGAATTATATAGAAA [GTGCAC_negctrl_site650] | 8.38 ± 0.49
61 | TTAATAATAAAAAGGAGTACACTAATATACTATAAA [XGTACX_site2346] | 8.65 ± 0.52
62 | TTAAGAAACAAAGAAAGTACACAACATAATATAGAA [XGTACX_site477] | 8.92 ± 0.49
63 | ATATAATATATATATAAACACACAAAAAAAATTATA [CACACA_site8434] | 8.97 ± 0.45
64 | AATAAAATCATCTATACACACAAAAAAAATAAGAAA [CACACA_site2101] | 8.93 ± 0.47
65 | CCTCATAAGTTCTTATGTACGTATTGTTCACCTTTA [XGTACX_site6640] | 8.9 ± 0.49
66 | CTGTAAAAAATATAAACACACATAGAAATATATAAA [CACACA_site340] | 8.97 ± 0.49
67 | TACAACCTTATAATTAGTACTTAGTTATGCTGTAAA [XGTACX_site6052] | 8.61 ± 0.43
68 | TTTATTTGTGCATATACACACTTAAATATGTTTATT [CACACA_site7772] | 9 ± 0.45
69 | TTTAATTTTTTTTATAGTACATAAAAAATAAAAAAA [XGTACX_site5631] | 8.11 ± 0.43

Row | Sequence | gcPBM binding intensity (ln)
70 | ATTATAATACTTTGTATGCACTAATCAATTATTAAA | 8.47 ± 0.43
71 | CCGATATAATGGAAAACACACAAAAGATATTTATAT [CACACA_site7293] | 8.94 ± 0.48
72 | ACATAAAATTGGAGCAAACACACAAGGTTGAAATTA [CACACA_site505] | 9.05 ± 0.51
73 | TTTGTTATGGTTTTCTCACACATATATATATATATA [CACACA_site4617] | 9.36 ± 0.014
74 | TTATGTTGTAAATGCACACATACAAATACATATACA [CACACA_site1368] | 9.06 ± 0.25
75 | TACAATATAAAATACACACGCACACCGAAAAAAAAA [CACACA_site5865] | 9.52 ± 0.28
76 | TTTTCTATATAGTGTTGTACATTATTGTGTAAAAAT [XGTACX_site3223] | 8.7 ± 0.46
77 | ATATTTTATACTTGCACACAAAATATATTAAAATGG [CACACA_site5139] | 8.86 ± 0.35
78 | ATAAAATTGGAGCAAACACACAAGGTTGAAATTAAC [CACACA_site506] | 9.12 ± 0.56
79 | TATATGGTATGTATTACACACATATCACATATATAT [CACACA_site3045] | 9.28 ± 0.33
80 | TGGTAAATTGAGAATCGTACATTAAAAAACATAAAA [XGTACX_site3253] | 8.62 ± 0.49
81 | GGAATGGTACATGATACACACACGCACATATAAATA [CACACA_site7581] | 9.48 ± 0.48
82 | ATTTATTAAAAGAAATGTACAGAAAATGTTTGGAAT [XGTACX_site7187] | 8.79 ± 0.38
83 | AAGAAAAAAAAGATAATAATAATAATAATAAAATGA [TGCATGCA_negctrl_site398] | 8.71 ± 0.45
84 | ATTTAATATCACAATATATTTTTTACCCTTATCAGC [CACACA_negctrl_site491] | 8.63 ± 0.59
85 | TTTTTTTCATAAATTAGGTAATGTCGCAGGGGGACA [TGCATGCA_negctrl_site556] | 9.09 ± 0.12
86 | AAAGAATTGTATAAAAGTACATATTTGTTTGTTTTA [XGTACX_site7380] | 8.62 ± 0.5
87 | TAAAAAATAAAATACACACACATATATATATATATA [CACACA_site1323] | 9.9 ± 0.057
88 | TATATTCTTTTTTTAACACACAAAAAAAATAAAATA [CACACA_site1898] | 8.38 ± 0.31
89 | GAGGGAAAAAATAATCGTACAAAGAAAAAAAAAAAT [XGTACX_site7361] | 9.05 ± 0.59
